Measurements: the supplement of paper PMC8728848
The list shows a part of the results.

Key:
Assay in all cases: glycan array binding signal (z-score within array); higher = stronger binding
Settings in all cases: glycan notation: IUPAC condensed, linker removed
[1] = biological target: Gal(b1-4)GlcNAc(b1-2)Man(a1-6)[Man(a1-3)]Man(b1-4)GlcNAc(b1-4)GlcNAc
Outline: (§1)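 The Consortium for Functional Glycomics database supplied 3228 glycan arrays, of which those lacking an available protein sequence were dropped. The binding signal, a within-array Z-score, was averaged across arrays of the same protein sequence and across linkers. Negative scores can be read as non-binding.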

[2] = biological target: Gal(b1-4)GlcNAc(b1-2)[Gal(b1-4)GlcNAc(b1-4)]Man(a1-3)[Gal(b1-4)GlcNAc(b1-2)Man(a1-6)]Man(b1-4)GlcNAc(b1-4)GlcNAc
Outline: as §1

[3] = biological target: Gal(b1-4)GlcNAc(b1-2)[Gal(b1-4)GlcNAc(b1-4)]Man(a1-3)[Gal(b1-4)GlcNAc(b1-2)[Gal(b1-4)GlcNAc(b1-6)]Man(a1-6)]Man(b1-4)GlcNAc(b1-4)GlcNAc
Outline: as §1

[4] = biological target: Gal(b1-4)GlcNAc(b1-2)[Gal(b1-4)GlcNAc(b1-4)]Man(a1-3)[GlcNAc(b1-4)][Gal(b1-4)GlcNAc(b1-2)Man(a1-6)]Man(b1-4)GlcNAc(b1-4)GlcNAc
Outline: as §1

[5] = biological target: Gal(b1-4)GlcNAc(b1-2)[Gal(b1-4)GlcNAc(b1-4)]Man(a1-3)[GlcNAc(b1-4)][Gal(b1-4)GlcNAc(b1-2)[Gal(b1-4)GlcNAc(b1-6)]Man(a1-6)]Man(b1-4)GlcNAc(b1-4)GlcNAc
Outline: as §1

[6] = biological target: Gal(b1-4)GlcNAc(b1-2)[Gal(b1-4)GlcNAc(b1-6)]Man(a1-6)[Gal(b1-4)GlcNAc(b1-2)Man(a1-3)]Man(b1-4)GlcNAc(b1-4)GlcNAc
Outline: as §1

[7] = biological target: Gal(b1-4)GlcNAc(b1-2)[Gal(b1-4)GlcNAc(b1-6)]Man(a1-6)[Gal(b1-4)GlcNAc(b1-2)Man(a1-3)]Man(b1-4)GlcNAc(b1-4)[Fuc(a1-6)]GlcNAc
Outline: as §1

[8] = biological target: Gal(b1-4)GlcNAc(b1-2)[Gal(b1-4)GlcNAc(b1-6)]Man(a1-6)[GlcNAc(b1-4)][Gal(b1-4)GlcNAc(b1-2)Man(a1-3)]Man(b1-4)GlcNAc(b1-4)GlcNAc
Outline: as §1

[9] = biological target: Gal(b1-4)GlcNAc(b1-2)[Gal(b1-4)GlcNAc(b1-6)]Man(a1-6)[GlcNAc(b1-4)][Gal(b1-4)GlcNAc(b1-2)[Gal(b1-4)GlcNAc(b1-4)]Man(a1-3)]Man(b1-4)GlcNAc(b1-4)[Fuc(a1-6)]GlcNAc
Outline: as §1

[10] = biological target: Gal(b1-4)GlcNAc(b1-3)Gal(b1-3)GalNAc
Outline: as §1

[11] = biological target: Gal(b1-4)GlcNAc(b1-3)Gal(b1-3)GlcNAc
Outline: as §1

[12] = biological target: Gal(b1-4)GlcNAc(b1-3)Gal(b1-4)Glc
Outline: as §1

[13] = biological target: Gal(b1-4)GlcNAc(b1-3)Gal(b1-4)GlcNAc
Outline: as §1

[14] = biological target: Gal(b1-4)GlcNAc(b1-3)Gal(b1-4)GlcNAc(b1-2)Man(a1-3)[Gal(b1-4)GlcNAc(b1-3)Gal(b1-4)GlcNAc(b1-2)Man(a1-6)]Man(b1-4)GlcNAc(b1-4)GlcNAc
Outline: as §1

[15] = biological target: Gal(b1-4)GlcNAc(b1-3)Gal(b1-4)GlcNAc(b1-2)Man(a1-3)[Gal(b1-4)GlcNAc(b1-3)Gal(b1-4)GlcNAc(b1-2)Man(a1-6)]Man(b1-4)GlcNAc(b1-4)[Fuc(a1-6)]GlcNAc
Outline: as §1

[16] = biological target: Gal(b1-4)GlcNAc(b1-3)Gal(b1-4)GlcNAc(b1-2)[Gal(b1-4)GlcNAc(b1-3)Gal(b1-4)GlcNAc(b1-6)]Man(a1-6)[Gal(b1-4)GlcNAc(b1-3)Gal(b1-4)GlcNAc(b1-2)Man(a1-3)]Man(b1-4)GlcNAc(b1-4)GlcNAc
Outline: as §1

[17] = biological target: Gal(b1-4)GlcNAc(b1-3)Gal(b1-4)GlcNAc(b1-2)[Gal(b1-4)GlcNAc(b1-3)Gal(b1-4)GlcNAc(b1-6)]Man(a1-6)[Gal(b1-4)GlcNAc(b1-3)Gal(b1-4)GlcNAc(b1-2)Man(a1-3)]Man(b1-4)GlcNAc(b1-4)[Fuc(a1-6)]GlcNAc
Outline: as §1

[18] = biological target: Gal(b1-4)GlcNAc(b1-3)Gal(b1-4)GlcNAc(b1-3)Gal(b1-4)GlcNAc
Outline: as §1

[19] = biological target: Gal(b1-4)GlcNAc(b1-3)Gal(b1-4)GlcNAc(b1-3)Gal(b1-4)GlcNAc(b1-2)Man(a1-3)[Gal(b1-4)GlcNAc(b1-3)Gal(b1-4)GlcNAc(b1-3)Gal(b1-4)GlcNAc(b1-2)Man(a1-6)]Man(b1-4)GlcNAc(b1-4)GlcNAc
Outline: as §1

[20] = biological target: Gal(b1-4)GlcNAc(b1-3)Gal(b1-4)GlcNAc(b1-3)Gal(b1-4)GlcNAc(b1-2)Man(a1-3)[Gal(b1-4)GlcNAc(b1-3)Gal(b1-4)GlcNAc(b1-3)Gal(b1-4)GlcNAc(b1-2)Man(a1-6)]Man(b1-4)GlcNAc(b1-4)[Fuc(a1-6)]GlcNAc
Outline: as §1

[21] = biological target: Gal(b1-4)GlcNAc(b1-3)Gal(b1-4)GlcNAc(b1-3)Gal(b1-4)GlcNAc(b1-2)[Gal(b1-4)GlcNAc(b1-3)Gal(b1-4)GlcNAc(b1-3)Gal(b1-4)GlcNAc(b1-6)]Man(a1-6)[Gal(b1-4)GlcNAc(b1-3)Gal(b1-4)GlcNAc(b1-3)Gal(b1-4)GlcNAc(b1-2)Man(a1-3)]Man(b1-4)GlcNAc(b1-4)[Fuc(a1-6)]GlcNAc
Outline: as §1

[22] = biological target: Gal(b1-4)GlcNAc(b1-3)Gal(b1-4)GlcNAc(b1-3)Gal(b1-4)GlcNAc(b1-3)Gal(b1-4)GlcNAc(b1-2)Man(a1-3)[Gal(b1-4)GlcNAc(b1-3)Gal(b1-4)GlcNAc(b1-3)Gal(b1-4)GlcNAc(b1-3)Gal(b1-4)GlcNAc(b1-2)Man(a1-6)]Man(b1-4)GlcNAc(b1-4)GlcNAc
Outline: as §1

B1: OGAN (protein)
chain: MVQKESQATLEERESELSSNPAASAGASLEPPAAPAPGEDNPAGAGGAAVAGAAGGARRFLCGVVEGFYGRPWVMEQRKELFRRLQKWELNTYLYAPKDDYKHRMFWREMYSVEEAEQLMTLISAAREYEIEFIYAISPGLDITFSNPKEVSTLKRKLDQVSQFGCRSFALLFNDIDHNMCAADKEVFSSFAHAQVSITNEIYQYLGEPETFLFCPTEYCGTFCYPNVSQSPYLRTVGEKLLPGIEVLWTGPKVVSKEIPVESIEEVSKIIKRAPVIWDNIHANDYDQKRLFLGPYKGRSTELIPRLKGVLTNPNCEFEANYVAIHTLATWYKSNMNGVRKDVVMTDSEDSTVSIQIKLENEGSDEDIETDVLYSPQMALKLALTEWLQEFGVPHQY
With B1 the “glycan array binding signal (z-score)” value [1] was -0.063, the “glycan array binding signal (z-score)” value [2] was -0.076 and the “glycan array binding signal (z-score)” value [3] was -0.061. The “glycan array binding signal (z-score)” value [4] was -0.065, the “glycan array binding signal (z-score)” value [5] was -0.042 and the “glycan array binding signal (z-score)” value [6] was -0.064. The “glycan array binding signal (z-score)” value [7] was 0.012, the “glycan array binding signal (z-score)” value [8] was -0.045 and the “glycan array binding signal (z-score)” value [9] was -0.042. For the same binder, the “glycan array binding signal (z-score)” value [10] was -0.072, the “glycan array binding signal (z-score)” value [11] was -0.072 and the “glycan array binding signal (z-score)” value [12] was -0.07. For the same binder, the “glycan array binding signal (z-score)” value [13] was -0.047, the “glycan array binding signal (z-score)” value [14] was -0.028 and the “glycan array binding signal (z-score)” value [15] was -0.037. The “glycan array binding signal (z-score)” value [16] was -0.025, the “glycan array binding signal (z-score)” value [17] was -0.01 and the “glycan array binding signal (z-score)” value [18] was -0.079. For the same binder, the “glycan array binding signal (z-score)” value [19] was -0.025, the “glycan array binding signal (z-score)” value [20] was -0.038 and the “glycan array binding signal (z-score)” value [21] was -0.03. For the same binder, the “glycan array binding signal (z-score)” value [22] was -0.049.
